The source gives no read counts; variants with many changes may rest on few reads.
B1: CPEB3 Ribozyme (parent)
chain: UAACAGGGGGCCACAGCAGAAGCGUUCACGUCGCAGCCCCUGUCAGAUUCUGGUGAAUCUGCGAAUUCUGCUGUAUAUCUC

Variants of: B1
Experiment: self-cleavage, relative activity (ratio to wild type); higher = more cleavage; in vitro, sequencing
Outline: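 Barcoded CPEB3 ribozyme mutants, produced by rounds of error-prone PCR, self-cleaved while being transcribed with T7 RNA polymerase for 5 hours at 37°C and during a subsequent 15 min DNase I step before EDTA was added. Sequencing of template-switched cDNA on Illumina gave cleaved and total reads, and DNA sequencing assigned barcodes to variants. Each variant's relative activity is its cleaved/total read fraction divided by the unmutated ribozyme's fraction, averaged across three batches. A variant needed a minimum of 5 reads.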

**Q.** With UAACAUGGGGCCACGGCAGAAGCGUUCACGUCGCAGCCCCUGUCAGAUUCUAGUGAAUCUGCGAAUCCUGCUGUAUAUCUC [G6U A15G G52A U67C] as the variant, how does the self-cleavage read?
**A.** The self-cleavage was 0.12.

**Q.** For UAACAUGGGGCCACGGCAGAAGCGUUCACGUCGCAGCCCCAGUCAGAUUCUGGUGAAUCUGCGAAUUCUGCAGUAUAUCUC [G6U A15G U41A U72A], which self-cleavage is on record?
**A.** The self-cleavage was 0.09.

**Q.** For UAACAUGGGGCCACUGCAGAAGCGUUCAUGUCGCAGCCCCCGUCGGAUUCUGGUGAAACUGCGAAUUCUGCUGUAUAUCUC [G6U A15U C29U U41C A45G U58A], which self-cleavage is on record?
**A.** The self-cleavage was 0.06.

**Q.** With UAACAUGGGGCCACUGCAGAAGCGUUCACGUCGCAGCCCCUGUCAGAUUCUGGUGAAUCUGCGAAUUCUGCCGUAUAUCUC [G6U A15U U72C] as the variant, how does the self-cleavage read?
**A.** Its self-cleavage is 0.1.

**Q.** Which self-cleavage does the source give for UAACAUGGGGCCACAGCGGAAGCGUUCACGUAGCAGCCCCUGUCGGAUUCUGGUGAAUAUGCGAAUUCUGCUGUAUACCUU [G6U A18G C32A A45G C59A U78C C81U] here?
**A.** The self-cleavage was 0.03.

**Q.** With UAACAUGGGGCCACAGCGGAAGCGUUCACGUCGCAGCCCCUGUCAGAUUCGGGUGAAUCUGCGAGUUCUGCUGUAAAUCUC [G6U A18G U51G A65G U76A] as the variant, how does the self-cleavage read?
**A.** The self-cleavage was 0.16.

**Q.** For UAACAUGGGGCCACAGCUGAAGCGUUCACGUCGUAGCCCCUGUCAGAUUCUGGUGAAUCUGCGAAUUCUGCUGUAUAUCUC [G6U A18U C34U], which self-cleavage is on record?
**A.** The self-cleavage was 0.18.

**Q.** With UAACAUGGGGCCACAGCAGCAGCGUUCACGUCGCAGCCCCUGACAGAUUCUGGCGAAUCUGCGAAUUCUGCUGCAUAUCUC [G6U A20C U43A U54C U74C] as the variant, how does the self-cleavage read?
**A.** Its self-cleavage is 0.1.

**Q.** Which self-cleavage does the source give for UAACAUGGGGCCACAGCAGGAGCGUUCACGUCGCAGCCCCUGUCAGAUUCUGGUGGAUCUGCGAAUUCUGCUGUAUAUCUC [G6U A20G A56G] here?
**A.** The self-cleavage was 0.12.

**Q.** Which self-cleavage does the source give for UAACAUGGGGCCACAGCAGGAGCGUUCACGUCGCAACCCCCGUCUGAUUCUGGUGAAUCUGCGAAUUCUGCUGUAUAACUC [G6U A20G G36A U41C A45U U78A] here?
**A.** Its self-cleavage is 0.05.

**Q.** With UAACAUGGGGCCACAGCAGUAGCGUUCACGUCGCUGCCCCCGUCAGAUUCUGGAGAACCUGCGAAUUCUGCUGUAUAUCUC [G6U A20U A35U U41C U54A U58C] as the variant, how does the self-cleavage read?
**A.** The self-cleavage was 0.07.

**Q.** For UAACAUGGGGCCACAGCAGUAGCGUUCACGUCGCAGCCCCAGUCAGAUUCUGGUGGAUCUGCGAAUUCUGCUGUAUAUCCC [G6U A20U U41A A56G U80C], which self-cleavage is on record?
**A.** Its self-cleavage is 0.07.

**Q.** For UAACAUGGGGCCACAGCAGAGGCGUCCACGUCGCAGCCCCUGUCAGAUUCUGGUGAAUCUGCGAAGUCUGCUGUAUACCUC [G6U A21G U26C U66G U78C], which self-cleavage is on record?
**A.** The self-cleavage was 0.21.

**Q.** For UAACAUGGGGCCACAGCAGAGGCGUUCACGUCGCAGCCCCUGUCAGAUCCUGGUGAAUCUGCGAAUUCUGCUGUAUAUCUC [G6U A21G U49C], which self-cleavage is on record?
**A.** Its self-cleavage is 0.08.

**Q.** With UAACAUGGGGCCACAGCAGAUGCGUUCACGUCUCAGCCCCUGUCAGAUUCUGGUGAAUCCGCGAAUUCUGCUGUAUAUCUC [G6U A21U G33U U60C] as the variant, how does the self-cleavage read?
**A.** The self-cleavage was 0.1.

**Q.** Which self-cleavage does the source give for UAACAUGGGGCCACAGCAGAAGCGUUCACGUCGCUGCCCCUGUCAGAUUCUGGUGAAUCUGCGAAUUCUGCUGUAUGUCUC [G6U A35U A77G] here?
**A.** Its self-cleavage is 0.02.

**Q.** Which self-cleavage does the source give for UAACAUGGGGCCACAGCAGAAGCGUUCACGUCGCUGCCCCUGUCAGAUUCUGGUGAAUCCGCGGAUUCUGCUGUAUAUCUC [G6U A35U U60C A64G] here?
**A.** Its self-cleavage is 0.06.

**Q.** With UAACAUGGGGCCACAGCAGAAGCGUUCACGUCGCAGCCCCUGUCAGAUUCUGGUGAGUCUGCGAAUUCUGCUGUAUAUAUC [G6U A57G C79A] as the variant, how does the self-cleavage read?
**A.** The self-cleavage was 0.24.

**Q.** Which self-cleavage does the source give for UAACAUGGGGCCACAGCAGAAGAGUUCACGUCGCAGCCCCUGUCCGAUUCUGGUGAAUCUGCGAAUUCUGCUGUAUAUCUC [G6U C23A A45C] here?
**A.** The self-cleavage was 0.21.

**Q.** With UAACAUGGGGCCACAGCAGAAGCGUUCACGUCGCAGCCACUGUCAGAUUCUGGUGAAUCUGCGAAUUCUGCUGUUUAUCUC [G6U C39A A75U] as the variant, how does the self-cleavage read?
**A.** The self-cleavage was 0.39.

**Q.** Which self-cleavage does the source give for UAACAUGAGGCCACAGCAGAGGCGUUCACGUCGCAGCCCCUGUCAGAUUCUGGUGAAUCUGCGAAUCCUGCUGUAUAUCCC [G6U G8A A21G U67C U80C] here?
**A.** Its self-cleavage is 0.05.

**Q.** For UAACAUGUGGCCACAGCAGAAGCGUUCACGUCGCAGCCCCUGUCUGAUUCUGGUGUAUCUGCGAAUUCUGCUGUAUAUCUC [G6U G8U A45U A56U], which self-cleavage is on record?
**A.** The self-cleavage was 0.13.

**Q.** Which self-cleavage does the source give for UAACAUGGGGCCACAGCAUAAGUGUUCUCGUCGCAGCCCCUGUCAGAUUCUGGUGAAUCUGCGGAUUCUGCUGAAUAUCUC [G6U G19U C23U A28U A64G U74A] here?
**A.** The self-cleavage was 0.22.

**Q.** Which self-cleavage does the source give for UAACAUGGGGCCACAGCAUAAGCGUUCACGUCCCAGCCCAUGUCAGAUUCUGGUGAAUCCGCGAGUUCUGCUGUAUAUCUC [G6U G19U G33C C40A U60C A65G] here?
**A.** Its self-cleavage is 0.06.

**Q.** With UAACAUGGGGCCACAGCAGAAGCGAUCACGUCGCAACCCCUGUCAGAUUCUGGUGAACCUGCGAAUUCUGCUGUAUAUCUC [G6U U25A G36A U58C] as the variant, how does the self-cleavage read?
**A.** The self-cleavage was 0.11.

**Q.** For UAACAUGGGGCCACAGCAGAAGCGCUCACGUCGCAUCCCCUGUCAGAUUCUGGUGAAUCUGCGAAUUCUGCUGUAUAUCUC [G6U U25C G36U], which self-cleavage is on record?
**A.** Its self-cleavage is 0.26.

**Q.** For UAACAUGGGGCCACAGCAGAAGCGUCCCCGUCGCAGCCCCUGUCAGACUCUGGUGAAUCUGCGAAUCCAGCUGUAUAUCUC [G6U U26C A28C U48C U67C U69A], which self-cleavage is on record?
**A.** Its self-cleavage is 0.22.

**Q.** For UAACAUGGGGCCACAGCAGAAGCGUCCACGACGCAGCCCCUGACAGAUUCUGGUGAAUCUGCGGAUUCUGCUGUAUAUCUC [G6U U26C U31A U43A A64G], which self-cleavage is on record?
**A.** The self-cleavage was 0.07.

**Q.** For UAACAUGGGGCCACAGCAGAAGCGUUCACGACGCAGCCCCUGUCAGAUUCAGGUGAAUCUGCGAAUUCUGCUGUAUAUCUC [G6U U31A U51A], which self-cleavage is on record?
**A.** The self-cleavage was 0.21.

**Q.** Which self-cleavage does the source give for UAACAUGGGGCCACAGCAGAAGCGUUCACGCCGCAGCCCCUGUCAGGUUCUGGUGAAUCCGCGAAUUCUGCAGUAUAUCUC [G6U U31C A47G U60C U72A] here?
**A.** Its self-cleavage is 0.14.

**Q.** With UAACAUGGGGCCACAGCAGAAGCGUUCACGUCGCAGCCCCAGUCAGGUUCUGGUGAAUCUGCGAAUUCUGCUGGAUAUCUC [G6U U41A A47G U74G] as the variant, how does the self-cleavage read?
**A.** Its self-cleavage is 0.1.

**Q.** Which self-cleavage does the source give for UAACAUGGGGCCACAGCAGAAGCGUUCACGUCGCAGCCCCCCUCAGAUUCCGGUGAAUCUGCGGAUUCUGCCGUAUGUCUC [G6U U41C G42C U51C A64G U72C A77G] here?
**A.** Its self-cleavage is 0.05.

**Q.** With UAACAUGGGGCCACAGCAGAAGCGUUCACGUCGCAGCCCCUGACAGAUUCUGGUGAAUCUGCGAAUCCCGCUGUAUAUCUC [G6U U43A U67C U69C] as the variant, how does the self-cleavage read?
**A.** Its self-cleavage is 0.27.

**Q.** Which self-cleavage does the source give for UAACAUGGGGCCACAGCAGAAGCGUUCACGUCGCAGCCCCUGCCAGAUUCCGGUGAAUCCGCGAAUUCUGCCGUACAUCCC [G6U U43C U51C U60C U72C U76C U80C] here?
**A.** Its self-cleavage is 0.08.
